Laboratory results taken from US20240254239A1 (LAEKNA THERAPEUTICS SHANGHAI, published 2024).

Target: T1, human ULBP1 ECD (human, UniProt Q9BZM6 26-216, limits assumed)
T1 construct: extracellular domain; also called recombinant extracellular domain of ULBP1
T1 sequence (looked up): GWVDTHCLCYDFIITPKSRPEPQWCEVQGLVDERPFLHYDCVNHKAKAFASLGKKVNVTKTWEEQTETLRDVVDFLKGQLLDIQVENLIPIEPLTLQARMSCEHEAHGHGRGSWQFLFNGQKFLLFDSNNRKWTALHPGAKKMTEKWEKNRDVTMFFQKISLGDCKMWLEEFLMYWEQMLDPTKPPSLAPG
Assay: direct ELISA on coated recombinant ECD (30 ng/well), HRP-conjugated secondary antibody, luminescence
Experimental: Briefly, recombinant extracellular domain of PDGFRb, FAPα, ULBP1, uPAR, IGF1R, SIRPA, PD-L1, ANTXR1, CD248, or GPC3 (30 ng/well) was coated on white optiplate™-384 well HB plate. After overnight coating, standard direct ELISA assay was performed. Luminescence signal was detected after using secondary antibody with HRP conjugated. Binding activity of each antibody was determined based on dose dependent binding curve.

binding result: binds
B1: NKG2D-hIgG1 Fc S239D/1332E (Fc fusion)
chain: FLNSLFNQEVQIPLTESYCGPCPKNWICYKNNCYQFFDESKNWYESQASCMSQNASLLKVYSKEDQDLLKLVKSYHWMGLVHIPTNGSWQWEDGSILSPNLLTIIEMQKGDCALYASSFKGYIENCSTPNTYICMQRTVGGSGGGSGFLNSLFNQEVQIPLTESYCGPCPKNWICYKNNCYQFFDESKNWYESQASCMSQNASLLKVYSKEDQDLLKLVKSYHWMGLVHIPTNGSWQWEDGSILSPNLLTIIEMQKGDCALYASSFKGYIENCSTPNTYICMQRTVGGGGSGGGGSGGGGSGGGGS[human IgG1 Fc with changes not given here]
notes: also called NKG2D-hIgG1 Fc S239D/I332E; NKG2D-Fc fusion protein
